According to ChEMBL document CHEMBL4888484, “Replenishing the malaria drug discovery pipeline: Screening and hit evaluation of the MMV Hit Generation Library 1 (HGL1) against asexual blood stage Plasmodium falciparum ,using a nano luciferase reporter read-out” (2022):
Screen size: about 150,000 compounds; about 540 (0.36%) showed an effect of 50% or more. This is one part of the list.

What follows are molecules tested on Plasmodium falciparum (assay: Primary screen in NF54 nanoGlo assay, in single point, at 2uM, 72h; a lower Z score goes with more inhibition). Details: timepoint 72 hour.
Type: functional, Erythrocyte
With `C[C@@H]1CN(CC(C#N)CCC#N)CCN1C(=O)OC(C)(C)C` (stereo partly drawn) the “% Inhibition” value was -4% and the Z score was 0.52. With `CCN1CCC(NC(=O)c2cc(C3CC3)nn2C)(C(F)(F)F)CC1` the “% Inhibition” value was -7% and the Z score was 1.4. In the case of `Cn1nccc1C(=O)NCc1ccc2[nH]c(=O)[nH]c2c1`, the “% Inhibition” value was -13% and the Z score was 1.51. With `Cc1noc(C(F)F)c1C(=O)NC[C@@]1(c2cnn(C)c2)CCCO1` the “% Inhibition” value was -24% and the Z score was 2.62. In the case of `CCCCNC(=O)CN(C)C(=O)c1cn(C)c(C)cc1=O`, the “% Inhibition” value was -13% and the Z score was 1.92. With `Cc1ccc(CN(C(=O)CCn2ccccc2=O)C2CC2)cc1C` the “% Inhibition” value was 6% and the Z score was -1.21. In the case of `CCC(CC)(C(=O)N1CCC2(CCOCC2)CC1)c1ccccc1`, the “% Inhibition” value was -15% and the Z score was 2.74. In the case of `CN(C)c1nc(Cn2cnc3c2c(=O)n(C)c(=O)n3C)ns1`, the “% Inhibition” value was 33% and the Z score was -3.77. In the case of `O=S(=O)(C1CC1)N1CCc2ccccc2C1`, the “% Inhibition” value was -5% and the Z score was 0.74. With `CCS(=O)(=O)C[C@](C)(Cl)C(=O)Nc1ccc(C(=O)OC)cc1` the “% Inhibition” value was -14% and the Z score was 1.6. In the case of `CC(C)Cc1nc(CN(C)c2noc(C3CC3)n2)no1`, the “% Inhibition” value was -2% and the Z score was 0.38. `COc1cccc(-c2ccc(N3CCN(C(=O)CN(CCN4CCOCC4)C(=O)C4CCC4)CC3)nn2)c1` was tested, and the “% Inhibition” value was 5% and the Z score was -0.75. For `COc1ccc(-c2cc3n(n2)C[C@@](C)(C(=O)NC2CCCCCCC2)N(C2CCCC2)C3=O)cc1`, the “% Inhibition” value was 1% and the Z score was -0.12. For `COC(=O)N1CCCC(NC(C)c2ccc(OC)cc2)C1` (stereo not drawn), the “% Inhibition” value was 2% and the Z score was -0.36. `CCN(CCOc1cccc(Cl)c1)C(=O)c1c(C)cc(C)[nH]c1=O` was tested, and the “% Inhibition” value was -5% and the Z score was 0.92. For `C[C@H](NC(=O)NCCC1CCCCC1)[C@H](O)c1ccc(O)cc1`, the “% Inhibition” value was -2% and the Z score was 0.27. For `C[C@H]1CCc2c(sc(NC(=O)c3ccc(S(=O)(=O)N4CCCC4)cc3)c2C(N)=O)C1`, the “% Inhibition” value was -7% and the Z score was 1.19. With `C=Cc1ccc(CN(c2cc(F)cc(F)c2)S(=O)(=O)c2cccn3cnnc23)cc1` the “% Inhibition” value was -4% and the Z score was 0.66. With `COc1ccc(NC(=O)N2CCc3c(C(=O)NCCCN4CCCC4=O)cccc32)cc1` the “% Inhibition” value was 10% and the Z score was -1.09. For `CCN1C[C@]2(CCCN(C(=O)c3ccc(-c4ccccc4)[nH]c3=O)C2)CCC1=O`, the “% Inhibition” value was -14% and the Z score was 1.95. In the case of `FC(F)(F)c1ccc(N[C@H]2CCCN(c3ncccn3)C2)nc1`, the “% Inhibition” value was 5% and the Z score was -0.65. For `Cc1nc(NC(=O)N2CC(C)OC3(CCOC3C)C2)ccc1-c1ccccc1` (stereo not drawn), the “% Inhibition” value was -4% and the Z score was 0.56. For `O=C(N[C@H]1CC[C@@H]1O)c1noc2c1CCc1ccccc1-2`, the “% Inhibition” value was -15% and the Z score was 1.9. For `COc1ccc(S(=O)(=O)N2CCOCC2)cc1NC(=O)c1cc2c(s1)CCCCC2`, the “% Inhibition” value was -14% and the Z score was 1.93. `Cc1nnsc1C(=O)N1CCO[C@H](c2ccccc2)C1` was tested, and the “% Inhibition” value was -6% and the Z score was 0.87. `CC(=O)NCC(=O)NCC(=O)N(C)[C@H](c1ccccc1C)C(C)C` was tested, and the “% Inhibition” value was 1% and the Z score was -0.23. `CCCNC(=O)C1CCN(c2nc3ncn(CC(N)=O)c(=O)c3s2)CC1` was tested, and the “% Inhibition” value was -6% and the Z score was 0.92. `Cc1noc(C)c1C(=O)N1CCCCC[C@H]1c1c(Cl)cnn1C` was tested, and the “% Inhibition” value was -12% and the Z score was 1.08. In the case of `O=C(NCCC(F)(F)F)NCCC1(O)CCC1`, the “% Inhibition” value was -5% and the Z score was 0.62. `CN(Cc1ncon1)C(=O)[C@H](O)C1CCCCC1` was tested, and the “% Inhibition” value was 2% and the Z score was -0.41. `CCC(CC)C(=O)N(C)C1CCN(c2ccccn2)CC1` was tested, and the “% Inhibition” value was 5% and the Z score was -0.48. In the case of `Cc1ccc2sc(C(=O)N3CCC4(CC3)COC(=O)N4)cc2c1`, the “% Inhibition” value was -13% and the Z score was 2.02. In the case of `CCO[C@H]1C[C@@H](NC(=O)c2ccc(F)cc2O)C1`, the “% Inhibition” value was 1% and the Z score was -0.11. With `CC(C)[C@@H]1CCCCN1C(=O)Nc1cccn(CC(F)(F)F)c1=O` the “% Inhibition” value was -5% and the Z score was 0.83. For `NC(=O)CCN1CCN(S(=O)(=O)CC2CCCC2)CC1`, the “% Inhibition” value was -9% and the Z score was 1.17. `Cc1nn(C)c(C)c1CNC(=O)Nc1ccnn1C[C@H]1CCOC1` was tested, and the “% Inhibition” value was -7% and the Z score was 1.29. For `CC1COCC(C)N1C(=O)Cc1cccs1` (stereo not drawn), the “% Inhibition” value was -4% and the Z score was 0.51. For `CC(C)c1ccc(NC(=O)c2cccc(-c3noc(C4CCC4)n3)c2)cc1`, the “% Inhibition” value was -2% and the Z score was 0.42. In the case of `CCCC1(C2CCN(Cc3ccc(OCC)cc3)CC2)NC(=O)N(CC2CCCO2)C1=O` (stereo not drawn), the “% Inhibition” value was -7% and the Z score was 0.85. With `CN(C)CCN(Cc1ccco1)S(=O)(=O)c1cccnc1` the “% Inhibition” value was -1% and the Z score was 0.05. In the case of `CCOC(=O)NC(=O)C(=CNc1cccc(C(F)(F)F)c1)C(=O)NC(=O)OCC`, the “% Inhibition” value was -29% and the Z score was 3.43. With `CN1CC[C@H](NC(=O)c2ccccc2-n2cnnc2)C1=O` the “% Inhibition” value was -11% and the Z score was 1.34. For `Oc1ccc(-c2nc(-c3c[nH]c4ccccc34)cs2)cc1`, the “% Inhibition” value was 37% and the Z score was -1.72. With `CCOC(=O)c1nc(-c2ccccn2)c(-c2cn(C)c3ccccc23)nc1NC(=O)c1ccccc1` the “% Inhibition” value was 2% and the Z score was -0.29. `C[C@H]1C(=O)NCCN1CCc1nc(-c2ccccc2)no1` was tested, and the “% Inhibition” value was -11% and the Z score was 1.74. `CCOC(=O)[C@@H](Cc1ccc(O)cc1)NC(C)=O` was tested, and the “% Inhibition” value was -15% and the Z score was 1.84. `O=C(c1coc(COc2ccccc2F)n1)N1CCS(=O)(=O)CC1` was tested, and the “% Inhibition” value was -11% and the Z score was 1.08. `COC[C@H](C)Nc1cnn(-c2ncc(Cl)cc2Cl)c1` was tested, and the “% Inhibition” value was -14% and the Z score was 2.12. In the case of `O=C(O)c1cccnc1N1CCC(OCc2ccc(F)cc2)CC1`, the “% Inhibition” value was -2% and the Z score was 0.2. `Cc1ccc(C)c(NC(=O)C2CCN(S(=O)(=O)c3cc(C(=O)N4CCOCC4)cs3)CC2)c1` was tested, and the “% Inhibition” value was -7% and the Z score was 1.11. For `C[C@H]1CN(C(=O)c2cccc(-n3ccnc3)c2)CC(C)(C)O1`, the “% Inhibition” value was -13% and the Z score was 1.27. `CNc1nc(-c2cccc(C(=O)NCCCn3cc(C)cn3)c2)ncc1F` was tested, and the “% Inhibition” value was -11% and the Z score was 1.84. With `CC(C)N1CC[C@H](NCCc2ccccc2)C1` the “% Inhibition” value was -6% and the Z score was 0.77. `CCN(CC)c1ccc(CN(CCOC)C(=O)COC)c(OS(=O)(=O)CC)c1` was tested, and the “% Inhibition” value was 0% and the Z score was 0.01. In the case of `Cc1nc2scc(C3CC3)n2c1CN[C@H](CCO)c1ccccc1`, the “% Inhibition” value was 11% and the Z score was -1.52. With `C=CCOc1cc(NC(C)=O)c(Br)cc1Br` the “% Inhibition” value was 5% and the Z score was -0.87. In the case of `CC1CC1C(=O)N1CCc2cc(C(=O)O)ccc21` (stereo not drawn), the “% Inhibition” value was 1% and the Z score was -0.17. In the case of `O=C([C@@H]1CCCN1c1ncnc2ccccc12)N1CCc2sccc2C1`, the “% Inhibition” value was -11% and the Z score was 1.2. For `Fc1cncnc1N1CCC(COc2cc3c(nn2)CCC3)CC1`, the “% Inhibition” value was -18% and the Z score was 2.09. With `Cc1oc2c(c1C(=O)NCCC1CCN(C)CC1)CN(Cc1ccc(F)cc1)CC2` the “% Inhibition” value was -9% and the Z score was 0.88. For `COCCCNC(=O)[C@]1(C)Cn2nc(-c3ccccc3)cc2C(=O)N1c1ccc(C)cc1C`, the “% Inhibition” value was 1% and the Z score was -0.17. `CC[C@H](C)NC(=O)c1cc(C)n(CCN2CCCC2)c1C` was tested, and the “% Inhibition” value was -11% and the Z score was 2.16. For `O=C(NCCN1CCCCC1)c1ccc(-c2cccs2)nc1`, the “% Inhibition” value was -8% and the Z score was 1.51. `CC(C)c1c(C2CCN(C(=O)c3cc4ccccc4[nH]3)CC2)noc1N` was tested, and the “% Inhibition” value was -10% and the Z score was 1.62. With `COc1cnc(N2CCC(n3ccnc3)CC2)nc1N1CCC(n2ccnc2)CC1` the “% Inhibition” value was -4% and the Z score was 0.4. `CCn1cnc2c(NCCc3ccc4[nH]ncc4c3)ncnc21` was tested, and the “% Inhibition” value was -4% and the Z score was 0.48. In the case of `O=c1n(Cc2ccccn2)nc2c(-c3nc(-c4ccc(Cl)cc4)no3)cccn12`, the “% Inhibition” value was -12% and the Z score was 1.89. For `CC(C)CN1CCC[C@H]1c1nc(-c2cc(O)ncn2)no1`, the “% Inhibition” value was -3% and the Z score was 0.44. With `Cc1ccccc1-n1nc(C(=O)NC2CCCCC2)nc1CCc1ccccc1` the “% Inhibition” value was -1% and the Z score was 0.11. For `COC(=O)[C@@H]1C[C@@H](NC(=O)C(c2ccccc2)c2ccccc2)CN1`, the “% Inhibition” value was 1% and the Z score was -0.17. With `N#CC1CCN(c2cc([C@H]3CCOC3)nc(N)n2)CC1` the “% Inhibition” value was 10% and the Z score was -1.35. With `CCC[C@H](C)C(=O)NCC1CCOCC1` the “% Inhibition” value was -12% and the Z score was 2.09. `O=C(CN1CCC[C@@H]1Cc1cccc2ccccc12)NC1CC1` was tested, and the “% Inhibition” value was 1% and the Z score was -0.04. In the case of `CCCNC(=O)N1CC[C@@H]2[C@H]1C(=O)N(c1cccc(F)c1)C(=O)N2Cc1cccs1`, the “% Inhibition” value was -4% and the Z score was 0.46. For `CCn1nccc1C(=O)N1CCC[C@H](Cc2nncn2CC2CC2)C1`, the “% Inhibition” value was -8% and the Z score was 1.09. `Cc1cc(N)n(CC(=O)N[C@H]2COCC[C@@H]2Oc2ccc(C(N)=O)cc2)n1` was tested, and the “% Inhibition” value was -6% and the Z score was 0.82. `O=C1CC[C@@H]2CN(c3cnccn3)CC[C@@H]2N1CCCn1ccnc1` was tested, and the “% Inhibition” value was 0% and the Z score was 0.02. In the case of `O=C(CNC(=O)Nc1cccnc1)Nc1cccc2ccccc12`, the “% Inhibition” value was -1% and the Z score was 0.16. `Cc1nccn1CCC(=O)N[C@H](c1nccn1C)C1CC1` was tested, and the “% Inhibition” value was 7% and the Z score was -1.47. In the case of `Cc1nccn1CCn1c(=O)n(CC2CC2)c2ccc(C(=O)O)cc21`, the “% Inhibition” value was -17% and the Z score was 2.09. In the case of `C[C@H](OC(=O)c1cn(-c2ccccc2Cl)nn1)c1cnc2ccccc2c1`, the “% Inhibition” value was -1% and the Z score was 0.17. For `C[C@H](NS(C)(=O)=O)c1ncnn1-c1ccc(C(F)(F)F)cc1`, the “% Inhibition” value was 10% and the Z score was -1.38. For `CC(C)(C)[C@H](NS(=O)(=O)c1cccc(Br)c1)C(N)=O`, the “% Inhibition” value was -11% and the Z score was 2.02. `O=C(NCCCNC(=O)C1CCC1)Nc1ccncc1F` was tested, and the “% Inhibition” value was 4% and the Z score was -0.74.
